Assay results taken from patent US7271245B2, “Methods and compositions for inhibition of metastasis” (The Scripps Research Institute, priority 2004, dated 2007).

System: activated integrin αvβ3
Assay: Flow cytometry, scFv binding to MDA-MB 435 variants and patient metastatic breast cancer cells
Set-up: species or system human
Method: FIGS. 1A, 1B, 1C. Patient derived scFvs Bc-12 and Bc-15 recognize tumor cell integrin αvβ3 in a cation and activation dependent manner. Flow cytometric analyses in TBS with or without 1 mM Ca^2+, 1 mM Mg^2+, or 0.2 mM Mn^2+ as indicated. Binding of soluble scFv detected after incubation with anti-Flag M2 murine mAb followed by FITC-anti mouse F(ab′)2. (A) scFv binding to human melanoma cells (M21: αvβ3 plus other αv integrins) (M21-LIIb: αIIbβ3, no αv integrins) or lung adenocarcinoma cells (UCLA-P3: αv integrins, no β3 integrin). (B) scFv binding to M21 melanoma cells. (C) scFv binding to variants of MDA-MB 435 human breast cancer cells that lack (β^3−) or express αvβ3 either in a non-activated (β3WT, ParentCo) or activated form (β3D723R, Bone, Lung, and BMS metastatic cancer cells isolated from breast cancer patient blood).
FIGS. 2A, 2B, 2C, 2D. Translation of scFv DNA sequence analyses. (A) Consensus amino acid sequence (SEQ ID NO: 9) of Bc-12 (SEQ ID NO: 7) and Bc-15 (SEQ ID NO: 8) (specific for activated αvβ3) compared to Bc-20 (specific for αv) (SEQ ID NO: 10). (B) scFv binding to BMS human breast cancer cells by flow cytometry, indicating loss of Bc-12 and Bc-15 binding when CDR-H3 RGD is mutated to RGE (Mut-12 and Mut-15). […] (C) cDNA sequences for scFv Bc-12 (SEQ ID NO: 1) and scFv Bc-15 (SEQ ID NO: 3). The cDNA encoding scFv Bc-12 has an ATCC accession number PTA-6303, date of deposit: Nov. 12, 2004. The cDNA encoding scFv Bc-15 has an ATCC accession number PTA-6304, date of deposit: Nov. 12, 2004. (D) cDNA sequences for scFv Mut-12 (SEQ ID NO: 5) and scFv Mut-15 (SEQ ID NO: 6). scFv Mut-12 is the RGE containing mutant version of scFv Bc-12. scFv Mut-15 is the RGE containing mutant version of scFv Bc-15.
Flow cytometry. scFv binding to human tumor cells was analyzed by flow cytometry, initially with cloned scFv phage and then with purified scFv protein. Per sample, 2×10^5 tumor cells were blocked with goat serum and incubated either with scFv phage (2-5×10^10) (1 h at RT) followed by mouse anti-M13 mAb (Serotec) (30 min on ice) and goat FITC-anti mouse (Pierce) (30 min on ice), or with purified scFv (1.25 to 40 μg/ml, routinely 10 to 15 μg/ml) (45 min on ice), followed by mouse anti-FLAG mAb M2 (Sigma) (30 min on ice) and goat FITC-anti mouse. Binding/washing buffer was TBS with or without divalent cations (1 mM Ca^2+, 1 mM Mg^2+, 0.2 mM Mn^2+). Alternatively, tumor cells were washed in 10 ml of plasma (prepared freshly from human blood anticoagulated with 50 nM D-Phe-D-Pro-D-arginyl chloromethyl ketone, PPACK, Felding-Habermann et al., J. Biol. Chem. 271: 5892-5900, 1996), resuspended in plasma and then incubated sequentially, without washing, with purified scFv (45 min on ice), followed by anti-FLAG M2 (30 min on ice) and FITC-anti mouse (30 min on ice). All samples were counter stained with propidium iodide (PI) and analyzed on a Becton-Dickinson FACScan, with live gate set to exclude PI positive cells.
To test this further, the effects of cation combinations on Bc-12 and Bc-15 binding were examined. […] Smith, Methods Cell Biol. 69: 247-259, 2002; Hughes et al., J. Biol. Chem. 271: 6571-6574, 1996. To confirm that scFv Bc-12 and Bc-15 selectively recognize αvβ3 in its activated form, binding of these antibodies to in vitro generated and in vivo selected variants of the MDA-MB 435 breast cancer cell model was tested. […] In contrast, Bc-12 and Bc-15 were able to bind an MDA-MB 435 variant expressing constitutively activated mutant αvβ3D723R, without exogenous stimulation with Mn^2+. […] Importantly, scFvs Bc-12 and Bc-15 recognized in vivo selected MDA-MB 435 variants from bone and lung metastases, as well as metastatic cells isolated from breast cancer patient blood samples (FIG. 1C). These cells express αvβ3 in a constitutively activated form. Felding-Habermann et al., Proc. Natl. Acad. Sci. U.S.A 98: 1853-1858, 2001; Rolli et al., Proc. Natl. Acad. Sci. U.S.A 100: 9482-9487, 2003.

B1: Bc-15: patient derived human scFv antibody against activated αvβ3 with RGD motif in CDR-H3; cDNA ATCC PTA-6304 (protein)
scFv: MAQVQLVQSGAEVKEPGSSVKVSCKASGGTFSSYAIYWVRQAPGQGLEWMGWINPDSGDTNSAQQFQGRVTMTRDTSISTAYMELSRLRSDDTAMYYCARPPRGDGPDYWGQGTLVTVSSGGGGGS[letters of about 100 residues not shown]RGLGGLVDYKDDDDK
binding to MDA-MB 435 variant expressing αvβ3D723R with Mn2+ (Mn^2+ added): further enhanced | binding to MDA-MB 435 variant expressing αvβ3D723R (constitutively activated mutant, without Mn^2+): able to bind | binding to β3-negative MDA-MB 435 cells (β3− variant): failed to bind
